According to PubChem BioAssay AID504832 (National Center for Advancing Translational Sciences (NCATS), 2011):
About 18,000 (5.8%) of roughly 310,000 compounds were called active. This list was built around the results that the source calls inconclusive (neither active nor inactive); the mix of calls is not that of the screen. Calls come from the whole dose curve; as a rule, active = well fitted inhibition curve with a large enough effect; inconclusive = small, poorly fitted or top-dose-only effect, or another doubt; inactive = no such curve, though single readings can be large or run the other way. Potencies of inconclusive entries are left out as doubtful fits.

Assay: Primary qHTS for delayed death inhibitors of the malarial parasite plastid, 48 hour incubation
Conditions: P. falciparum luciferase growth in erythrocytes; series mostly up to 28.7 µM; activity change, negative = inhibition: at the top concentration
How it was run: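 A one-generation exposure of luciferase-tagged malaria parasites in RPMI 1640/Albumax erythrocyte culture, 37 C and 5% CO2. Inhibition is inferred from decreased luminescence after adding detection reagent.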
% is set by controls: 0 for no effect and ±100 for the full control effect; potency is the fitted concentration of half-maximal effect; tags give direction and shape of the fitted curve.

Compound | Potency | activity change, negative = inhibition
Cc1ccc(/C=N/N(C)S(=O)(=O)c2ccc(C)cc2)cc1 | inconclusive [inhibitor, single point] | –
CCOC(=O)C1(Cc2ccccc2C)CCCN(C(=O)c2sccc2C)C1 (stereo unspecified) | inconclusive [inhibitor, single point] | –
C[C@@]12C(=O)N(Cc3ccccc3)CC(=O)N1[C@H]1c3ccccc3OC[C@@H]1[C@@H]2c1ccccc1 | inconclusive [inhibitor, single point] | –
S=c1[nH]nc(-c2cc3ccccc3o2)n1Cc1ccccc1 | – | inactive: -2.84%
O=C(NCc1ccccc1)c1ccc(CN2CCC(Cc3ccccc3)CC2)cc1 | active: 13.1 µM | –
O=C(N/N=C/C=C\c1ccco1)c1cccnc1 | – | inactive: 3.71%
Cc1onc(-c2c(Cl)cccc2Cl)c1C(=O)Nc1ccc2c(C(F)(F)F)cc(=O)oc2c1 | inconclusive [inhibitor, partial curve, poor fit] | –
O=C(C(=S)N1CCOCC1)c1c[nH]c2ccccc12 | inconclusive [inhibitor, partial curve, poor fit] | –
Cc1ccc(OCCC(=O)N(Cc2ccccc2)c2c(N)n(Cc3ccccc3)c(=O)[nH]c2=O)cc1 | inconclusive [inhibitor, partial curve, poor fit] | –
CC1CC2=C(C(=O)O1)C(c1ccc(Cl)cc1)Nc1ccccc1N2 (stereo unspecified) | inconclusive [inhibitor, single point] | –
C#CCOCCOCCOCCNc1nc(N2CCN(C(=O)[C@H](CCCCN)n3cc([C@@H](N)C(C)CC)nn3)CC2)nc(N2CCN(C(=O)[C@H](Cc3ccc(O)cc3)n3cc([C@@H](N)C(C)CC)nn3)CC2)n1 (stereo partly specified) | inconclusive [inhibitor, partial curve, poor fit] | –
Cc1nc2sc(-c3ccccc3)nn2c(=O)c1Br | – | inactive: 113%
Clc1c2c(nc3ccccc13)CCC2 | – | inactive: 18.5%
Cc1ccc(CN2CCNC(=O)C2CC(=O)N(C)CCc2ccccc2)cc1 (stereo unspecified) | inconclusive [inhibitor, partial curve, poor fit] | –
O=C1CCN(C(=O)CNC(=O)Cc2ccccc2)CC1 | inconclusive [inhibitor, partial curve, poor fit] | –
CCNc1nnc(-c2ccccc2OC)s1 | – | inactive: 23%
O=[N+]([O-])c1cccc(C=Nc2cccc3ccccc23)c1O | – | inactive: 1.47%
CC(=O)c1c(C)[nH]c(C(=O)OCc2ccc([N+](=O)[O-])cc2)c1C | – | inactive: 12.4%
COc1cc(CNCCN(C)C)c(Br)cc1OCC(=O)NCc1ccccc1 | – | inactive: -1.44%
C=CCNC(=O)/C(C#N)=C/c1c(N2CCCCCC2)nc2ccccn2c1=O | inconclusive [inhibitor, single point] | –
COc1ccccc1C(C)NC(=O)c1cc(S(=O)(=O)N2CCCCC2)ccc1C (stereo unspecified) | inconclusive [inhibitor, single point] | –
S=C(Nc1ccc2c(c1)OCO2)N1CCN(Cc2ccco2)CC1 | – | inactive: 49.9%
CCc1ccc(NS(=O)(=O)c2c(C(=O)N3CCOCC3)c(C)n(C)c2C)cc1 | – | inactive: 19.3%
CCCCN(C)C(=S)Nc1ccsc1C(=O)OC | inconclusive [inhibitor, partial curve, poor fit] | –

Compound | Potency | activity change, negative = inhibition
Clc1ccc(Cc2nc(-c3cccnc3)no2)cc1 | – | inactive: 18.5%
CC1=CC(C)(C)Nc2ccc(OC(=O)C(Cc3ccccc3)N3C(=O)c4ccccc4C3=O)cc21 (stereo unspecified) | inconclusive [inhibitor, single point] | –
Cc1ccc(S(=O)(=O)N(C)c2ccc(OCC(=O)N3CCCCC3)cc2)cc1 | inconclusive [inhibitor, single point] | –
Cc1cc(-c2nn(-c3ccccc3F)cc2CNCCc2cnccn2)c(C)s1 | inconclusive [inhibitor, full curve] | –
Cc1ccc(-c2nc(-c3ccncc3)no2)cc1C | – | inactive: 114%
Cc1cccn2c(=O)c(C(=O)NC3CCCCC3C)c(O)nc12 (stereo unspecified) | active: 13.1 µM | –
Cc1ccc(-c2cc(C(=O)NCCc3ccccn3)c3ccccc3n2)c(C)c1 | inconclusive [inhibitor, partial curve] | –
CCc1ccc2[nH]c(=O)c(CN(CCCN3CCOCC3)C(=O)Nc3ccc(F)cc3)cc2c1 | inconclusive [inhibitor, single point] | –
COc1ccc(CCNc2oc(-c3ccc(OC)c(OC)c3)nc2C#N)cc1 | inconclusive [inhibitor, single point] | –
Cc1cc(C(=O)N/N=C/c2cc(N=Nc3ccccc3)ccc2O)n[nH]1 | inconclusive [inhibitor, single point] | –
Cc1ccc2ncnc(NCCCN3CCOCC3)c2c1 | inconclusive [inhibitor, single point] | –
O=[N+]([O-])c1ccc(NCCNS(=O)(=O)c2ccccc2)c(C(F)(F)F)c1 | inconclusive [inhibitor, partial curve] | –
Cc1ccccc1NC(=O)C1c2cccc[n+]2CC(=O)N1c1c(C)cccc1C (stereo unspecified) | – | inactive: 48.1%
Cc1nc2c(-c3ccc(F)cc3)c(C)nn2c(C)c1CCC(=O)Nc1ccccc1 | inconclusive [inhibitor, partial curve] | –
O=C(Nc1ccccc1-c1ccccc1)c1ccccc1Br | – | inactive: 0%
Cc1noc(C)c1S(=O)(=O)Nc1ccc(C(C)C)cc1 | – | inactive: 0.651%
CC(C)(C)NS(=O)(=O)c1ccc2[nH]c3c(c2c1)CCCCC3 | inconclusive [inhibitor, single point] | –
C/C(=N\NS(=O)(=O)c1ccc(C)c([N+](=O)[O-])c1)c1cccs1 | – | inactive: -2.15%
Cc1nc2cc(N3CCCCC3)c(NC(=O)c3cccnc3)cc2c(=O)n1Cc1ccccc1 | active: 2.94 µM | –
COc1cc2ccccc2cc1C(=O)N(CCN(C)C)c1nc2ccc(Br)cc2s1 | inconclusive [inhibitor, single point] | –
O=C(NCCCN1CCN(c2ccc(F)cc2)CC1)C1CCCN(c2ncnc3c2nc2n3CCCCC2)C1 (stereo unspecified) | inconclusive [inhibitor, partial curve] | –
Cc1c(C)c2cc(Cl)c(OCC(=O)NC3CC(C)(C)NC(C)(C)C3)cc2oc1=O | inconclusive [inhibitor, single point] | –
CCOC(=O)c1cnc2ccc(C(=O)OC)cc2c1Nc1ccc2c(c1)OCCO2 | inconclusive [inhibitor, partial curve, poor fit] | –
CCOC(=O)CCc1c(C)nc2c(c(C)nn2C(C)(C)C)c1C | inconclusive [inhibitor, partial curve, poor fit] | –

Compound | Potency | activity change, negative = inhibition
CCCOC(=O)/C(=C\C=C\c1ccccc1)NC(=O)c1ccccc1 | – | inactive: -16.3%
CCOC(=O)c1c(NC(=O)CSc2nnnn2-c2ccccc2)sc2c1CC(C)(C)NC2(C)C | active: 6.57 µM | –
COc1ccc(-n2c(C)cc(/C=N/Nc3nc(N4CCOCC4)nc(N4CCOCC4)n3)c2C)cc1 | inconclusive [inhibitor, single point] | –
CCC(C)NC(=O)c1ccc(NC(=O)CC2SC(N3CCCCC3)=NC2=O)cc1 (stereo unspecified) | inconclusive [inhibitor, single point] | –
CC(C)Sc1nc2c(cnn2-c2ccccc2)c(=O)[nH]1 | – | inactive: 1.73%
CCCCn1c(N)c(N(CC(C)C)C(=O)C2CCN(c3ncnc4sc(C)c(C)c34)CC2)c(=O)[nH]c1=O | active: 5.22 µM | –
COc1ccc(N/C=C/C(=O)c2ccc(OC)c(OC)c2)cc1 | inconclusive [inhibitor, partial curve] | –
CCOc1ccc(C(=O)CSc2nnc(N)s2)cc1 | – | inactive: 55.9%
N=C1S/C(=C\c2cccc3ccccc23)C(=O)N1c1ccc(F)cc1 | active: 11.7 µM | –
CCCCN(C(=O)c1c(CC)noc1C)c1c(N)n(CCCC)c(=O)[nH]c1=O | – | inactive: 3.32%
CC1CCCC(NC(=O)CN2C(=O)c3cccnc3Oc3ccc(Cl)cc32)C1C (stereo unspecified) | inconclusive [inhibitor, partial curve] | –
Cc1ccc(C(=O)CC2(O)C(=O)N(CCc3ccccc3)c3ccc(Br)cc32)o1 (stereo unspecified) | inconclusive [inhibitor, single point] | –
N#Cc1c(N)oc(-c2ccccc2)c1-c1ccccc1 | inconclusive [inhibitor, single point] | –
CCC(=O)NC1=C(Cl)C(=O)C(NC(=O)CC)=C(Cl)C1=O | active: 7.38 µM | –
CCCOc1ccccc1OCC(=O)Nc1ccc(S(=O)(=O)N2CCCCC2)cc1 | inconclusive [inhibitor, partial curve, poor fit] | –
Cc1cc(F)ccc1NC(=S)NCCc1ccccc1 | inconclusive [inhibitor, single point] | –
Cc1cc(N2CCOCC2)n2cc(-c3ccccc3)nc2n1 | – | inactive: 343%
COc1ccc(OC)c(CCNC(=O)CCCC(=O)n2ncc3cc(C)ccc32)c1 | – | inactive: -17.4%
Cc1cccc(-c2nc(CS(=O)CC(=O)NC3CCCCC3)c(C)o2)c1 (stereo unspecified) | – | inactive: 25%
Cc1ccc(C(=O)CSc2nccn2-c2ccccc2)cc1 | – | inactive: 31.6%
Cc1c(C(=O)NNC(=S)Nc2ccc(S(N)(=O)=O)cc2)oc2ccccc12 | inconclusive [inhibitor, single point] | –
CCN1CCC(N2CCN(c3ccc(Cl)cc3)CC2)CC1 | – | inactive: -0.533%
NC(=O)C1CCCN(C(=O)c2cccc(S(=O)(=O)N(Cc3ccccc3)c3ccccc3)c2)C1 (stereo unspecified) | inconclusive [inhibitor, single point] | –
